In patent publication US20250019440A1 (Zymeworks, published 2025):

Assays:
Human CD3 (recombinant) [1] = molecular target: Human CD3 (recombinant) (human); assay: SPR, CD3 amine-coupled, variant as analyte, 1:1 model
Human PD-L1 [2] = molecular target: T1, Human PD-L1 (human, UniProt Q9NZQ7 in part); assay: SPR, PD-L1 amine-coupled, variant as analyte, 1:1 model
T1 construct: Amine-coupled to a CM5 chip for SPR; also called recombinant human PD-L1

Human mesothelin = molecular target: T2, Human mesothelin (human, UniProt Q13421 296-580, limits assumed); assay: SPR, mesothelin amine-coupled, variant as analyte, 1:1 model
Sequence of Human mesothelin (Q13421 other isoform, or with tags, fused parts or gaps limits assumed): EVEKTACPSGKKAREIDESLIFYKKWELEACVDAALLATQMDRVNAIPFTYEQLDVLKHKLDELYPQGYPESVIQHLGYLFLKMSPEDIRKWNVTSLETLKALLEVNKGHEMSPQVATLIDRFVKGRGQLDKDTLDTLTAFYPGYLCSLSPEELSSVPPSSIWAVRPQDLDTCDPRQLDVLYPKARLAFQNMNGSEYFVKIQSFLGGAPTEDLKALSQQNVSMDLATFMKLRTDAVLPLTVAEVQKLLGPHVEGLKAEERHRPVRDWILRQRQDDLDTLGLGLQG
T2 construct: Amine-coupled to a CM5 chip for SPR; also called MSLN; recombinant human mesothelin

Mouse PD-L1 = molecular target: T3, Mouse PD-L1 (mouse, UniProt Q9EP73 in part, limits assumed); assay: SPR, PD-L1 amine-coupled, variant as analyte, 1:1 model
Sequence of Mouse PD-L1 (Q9EP73 19-238 limits assumed): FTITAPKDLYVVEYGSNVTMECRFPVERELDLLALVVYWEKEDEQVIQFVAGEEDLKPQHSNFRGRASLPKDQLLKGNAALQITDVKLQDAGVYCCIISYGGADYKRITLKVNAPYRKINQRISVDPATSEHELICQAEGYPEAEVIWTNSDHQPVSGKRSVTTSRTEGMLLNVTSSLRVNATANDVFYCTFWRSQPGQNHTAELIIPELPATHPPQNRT
T3 construct: Amine-coupled to a CM5 chip for SPR; also called recombinant mouse PD-L1

Cynomolgus monkey PD-L1 = molecular target: T4, Cynomolgus monkey PD-L1 (cynomolgus monkey, UniProt G7PSE7 19-239); assay: as above
Sequence of Cynomolgus monkey PD-L1 (G7PSE7 entry or part of it): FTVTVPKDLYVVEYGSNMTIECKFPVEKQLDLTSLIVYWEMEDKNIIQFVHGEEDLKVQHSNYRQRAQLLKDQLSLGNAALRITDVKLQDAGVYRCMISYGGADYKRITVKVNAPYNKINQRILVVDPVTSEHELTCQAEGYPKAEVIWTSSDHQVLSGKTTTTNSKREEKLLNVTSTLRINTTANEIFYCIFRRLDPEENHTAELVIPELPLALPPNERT
T4 construct: Amine-coupled to a CM5 chip for SPR; also called recombinant cynomolgus monkey PD-L1

Human PD-L1 [3] = molecular target: T1, Human PD-L1; assay: as above; remark: listed apart in the source
T1 sequence (Q9NZQ7 19-239 limits assumed): as the sequence (G7PSE7 entry or part of it) above, with T33A, S34A, N62S, Q68R, R82Q, L173F, A185T, I192T, L215H counted along it

Human CD3 (recombinant) [4] = molecular target: Human CD3 (recombinant) (human); assay: SPR, CD3 amine-coupled, variant as analyte, 1:1 model; remark: listed apart in the source
Human PD-L1 [5] = molecular target: T1, Human PD-L1; assay: SPR, PD-L1 amine-coupled, variant as analyte, 1:1 model; remark: listed apart in the source

Sequence of Human CD3 (recombinant) (chain, as listed by the source): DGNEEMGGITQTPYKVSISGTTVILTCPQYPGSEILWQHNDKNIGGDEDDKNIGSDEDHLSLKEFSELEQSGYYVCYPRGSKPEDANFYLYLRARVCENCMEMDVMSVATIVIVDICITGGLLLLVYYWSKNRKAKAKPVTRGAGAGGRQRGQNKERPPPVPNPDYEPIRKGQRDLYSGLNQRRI

| Binder | Kd (Human CD3 (recombinant) [1]) [nM] | Kd (Human PD-L1 [2]) [nM] | Kd (Human mesothelin) [nM] | Kd (Mouse PD-L1) [nM] | Kd (Cynomolgus monkey PD-L1) [nM] | Kd (Human PD-L1 [3]) [nM] | Kd (Human CD3 (recombinant) [4]) [nM] | Kd (Human PD-L1 [5]) [nM] |
| --- | --- | --- | --- | --- | --- | --- | --- | --- |
| v38520 (other) heavy 1: [about 120 residues not shown]AAAKEAAAKEVQLVESGGGLVQPGGSLRLSCAASGVTFNYYGMSWIRQAPGKGLEWVASITSSGGRIYYPDSVKGRFTISRENTQKTLYLQMNSLRAEDTAVYYCTLDGRDGWVAYWGQGTLVTVSSASTKGPSVFPLAPSSKSTSGGTAALGCLVKDYFPEPVTVSWNSGALTSGVHTFPAVLQSSGLYSLSSVVTVPSSSLGTQTYICNVNHKPSNTKVDKK[human IgG1 Fc with changes not shown] light: NFMLTQPHSVSESPGKTVTISCKRNTGNIGSNYVNWYQQHEGSSPTTIIYRNDKRPDGVSDRFSGSIDRSSKSASLTISNLKTEDEADYFCQSYSSGFIFGGGTKLTVLGQPKAAPSVTLFPPSSEELQANKATLVCLISDFYPGAVTVAWKADSSPVKAGVETTTPSKQSNNKYAASSYLSLTPEQWKSHRSYSCQVTHEGSTVEKTVAPTECS heavy 2: DIQMTQSPSSLSASVGDRVTITCSASSSVSYMHWYQQKSGKAPKLLIYDTSKLASGVPSRFSGSGSGTDFTLTISSLQPEDFATYYCQQWSKHPLTFGQGTKLEIKGGGGSGGGGSGGGGSGGGGSQVQLVQSGAEVKKPGASVKVSCKASGYSFTGYTMNWVRQAPGQGLEWMGLITPYNGASSYNQKFRGKATMTVDTSTSTVYMELSSLRSEDTAVYYCARGGYDGRGFDYWGQGTLVTVSSAAEPKSSDKTHTCPPCPAPEAAGGPSVFLFPPKPKDTLMISRTPEVTCVVVSVSHEDPEVKFNWYVDGVEVHNAKTKPREEQYNSTYRVVSVLTVLHQDWLNGKEYKCKVSNKALPAPIEKTISKAKGQPREPQVYVLPPSRDELTKNQVSLLCLVKGFYPSDIAVEWESNGQPENNYLTWPPVLDSDGSFFLYSKLTVDKSRWQQGNVFSCSVMHEALHNHYTQKSLSLSPG | 79 | 4.4 | 1 |  |  |  |  |  |
| v38442 (other) heavy 1: EVQLVESGGGLVQPGGSLRLSCAASGVTFNYYGMSWIRQAPGKGLEWVASITSSGGRIYYPDSVKGRFTISRENTQKTLYLQMNSLRAEDTAVYYCTLDGRDGWVAYWGQGTLVTVSSASTKGPSVFPLAPSSKSTSGGTAALGCLVKDYFPEPVTVSWNSGALTSGVHTFPAVLQSSGLYSLSSVVTVPSSSLGTQTYICNVNHKPSNTKVDKKVEPKSCDKTHTCPPCPAPEAAGGPSVFLFPPKPKDTLMISRTPEVTCVVVSVSHEDPEVKFNWYVDGVEVHNAKTKPREEQYNSTYRVVSVLTVLHQDWLNGKEYKCKVSNKALPAPIEKTISKAKGQPREPQVYVYPPSRDELTKNQVSLTCLVKGFYPSDIAVEWESNGQPENNYKTTPPVLDSDGSFALVSKLTVDKSRWQQGNVFSCSVMHEALHNHYTQKSLSLSPGGGG[about 120 residues not shown] light: NFMLTQPHSVSESPGKTVTISCKRNTGNIGSNYVNWYQQHEGSSPTTIIYRNDKRPDGVSDRFSGSIDRSSKSASLTISNLKTEDEADYFCQSYSSGFIFGGGTKLTVLGQPKAAPSVTLFPPSSEELQANKATLVCLISDFYPGAVTVAWKADSSPVKAGVETTTPSKQSNNKYAASSYLSLTPEQWKSHRSYSCQVTHEGSTVEKTVAPTECS heavy 2: DIQMTQSPSSLSASVGDRVTITCSASSSVSYMHWYQQKSGKAPKLLIYDTSKLASGVPSRFSGSGSGTDFTLTISSLQPEDFATYYCQQWSKHPLTFGQGTKLEIKGGGGSGGGGSGGGGSGGGGSQVQLVQSGAEVKKPGASVKVSCKASGYSFTGYTMNWVRQAPGQGLEWMGLITPYNGASSYNQKFRGKATMTVDTSTSTVYMELSSLRSEDTAVYYCARGGYDGRGFDYWGQGTLVTVSSAAEPKSSDKTHTCPPCPAPEAAGGPSVFLFPPKPKDTLMISRTPEVTCVVVSVSHEDPEVKFNWYVDGVEVHNAKTKPREEQYNSTYRVVSVLTVLHQDWLNGKEYKCKVSNKALPAPIEKTISKAKGQPREPQVYVLPPSRDELTKNQVSLLCLVKGFYPSDIAVEWESNGQPENNYLTWPPVLDSDGSFFLYSKLTVDKSRWQQGNVFSCSVMHEALHNHYTQKSLSLSPG | 31 | 5.1 | 0.05 |  |  |  |  |  |
| v38443 (other) heavy 1: DIQMTQSPSSLSASVGDRVTITCSASSSVSYMHWYQQKSGKAPKLLIYDTSKLASGVPSRFSGSGSGTDFTLTISSLQPEDFATYYCQQWSKHPLTFGQGTKLEIKGGGGSGGGGSGGGGSGGGGSQVQLVQSGAEVKKPGASVKVSCKASGYSFTGYTMNWVRQAPGQGLEWMGLITPYNGASSYNQKFRGKATMTVDTSTSTVYMELSSLRSEDTAVYYCARGGYDGRGFDYWGQGTLVTVSSGGGGSGEVQLVESGGGLVQPGGSLRLSCAASGVTFNYYGMSWIRQAPGKGLEWVASITSSGGRIYYPDSVKGRFTISRENTQKTLYLQMNSLRAEDTAVYYCTLDGRDGWVAYWGQGTLVTVSSASTKGPSVFPLAPSSKSTSGGTAALGCLVKDYFPEPVTVSWNSGALTSGVHTFPAVLQSSGLYSLSSVVTVPSSSLGTQTYICNVNHKPSNTKVDKK[human IgG1 Fc with changes not shown] light: NFMLTQPHSVSESPGKTVTISCKRNTGNIGSNYVNWYQQHEGSSPTTIIYRNDKRPDGVSDRFSGSIDRSSKSASLTISNLKTEDEADYFCQSYSSGFIFGGGTKLTVLGQPKAAPSVTLFPPSSEELQANKATLVCLISDFYPGAVTVAWKADSSPVKAGVETTTPSKQSNNKYAASSYLSLTPEQWKSHRSYSCQVTHEGSTVEKTVAPTECS heavy 2: [about 120 residues not shown][about 250 residues not shown] | 44 | 2.4 | 0.06 |  |  |  |  |  |
| v38441 (other) heavy 1: [about 120 residues not shown]GGGSGQVQLVQSGAEVKKPGASVKVSCKASGYSFTGYTMNWVRQAPGQGLEWMGLITPYNGASSYNQKFRGKATMTVDTSTSTVYMELSSLRSEDTAVYYCARGGYDGRGFDYWGQGTLVTVSSASTKGPSVFPLAPSSKSTSGGTAALGCLVKDYFPEPVTVSWNSGALTSGVHTFPAVLQSSGLYSLSSVVTVPSSSLGTQTYICNVNHKPSNTKVDKKVEPKSCDKTHTCPPCPAPEAAGGPSVFLFPPKPKDTLMISRTPEVTCVVVSVSHEDPEVKFNWYVDGVEVHNAKTKPREEQYNSTYRVVSVLTVLHQDWLNGKEYKCKVSNKALPAPIEKTISKAKGQPREPQVYVLPPSRDELTKNQVSLLCLVKGFYPSDIAVEWESNGQPENNYLTWPPVLDSDGSFFLYSKLTVDKSRWQQGNVFSCSVMHEALHNHYTQKSLSLSPG light: DIQMTQSPSSLSASVGDRVTITCSASSSVSYMHWYQQKSGKAPKLLIYDTSKLASGVPSRFSGSGSGTDFTLTISSLQPEDFATYYCQQWSKHPLTFGQGTKLEIKRTVAAPSVFIFPPSDEQLKSGTASVVCLLNNFYPREAKVQWKVDNALQSGNSQESVTEQDSKDSTYSLSSTLTLSKADYEKHKVYACEVTHQGLSSPVTKSFNRGEC heavy 2: EVQLVESGGGLVQPGGSLRLSCAASGVTFNYYGMSWIRQAPGKGLEWVASITSSGGRIYYPDSVKGRFTISRENTQKTLYLQMNSLRAEDTAVYYCTLDGRDGWVAYWGQGTLVTVSSGGGGSGGGGSGGGGSGGGGSNFMLTQPHSVSESPGKTVTISCKRNTGNIGSNYVNWYQQHEGSSPTTIIYRNDKRPDGVSDRFSGSIDRSSKSASLTISNLKTEDEADYFCQSYSSGFIFGGGTKLTVLA[human IgG1 Fc with changes not shown] | 40 | 2.9 | 0.25 |  |  |  |  |  |
| v38735 (other) heavy 1: NPPTFSPALLVVTEGDNATFTCSFSNTSESFVLNWYRMSPSNQTDKLAAFPEDRSQPGQDARFRVTQLPNGRDFHMSVVRARRNDSGTYLCGAISLAPKLQIKESLRAELRVTEGGGGSGQVQLVESGGGLVQPGGSLRLSCSVSGIDLSSNPMIWVRQAPGKGLQYIGIIDTDGSTYYADWAKGRFTISKDSTTVYLQINSPRAEDTAVYYCARRLHGSSNGYYDDLWGQGTLVTVSSASTKGPSVFPLAPSSKSTSGGTAALGCLVKDYFPEPVTVSWNSGALTSGVHTFPAVLQSSGLYSLSSVVTVPSSSLGTQTYICNVNHKPSNTKVDKKVEPKSCDKTHTCPPCPAPEAAGGPSVFLFPPKPKDTLMISRTPEVTCVVVSVSHEDPEVKFNWYVDGVEVHNAKTKPREEQYNSTYRVVSVLTVLHQDWLNGKEYKCKVSNKALPAPIEKTISKAKGQPREPQVYVLPPSRDELTKNQVSLLCLVKGFYPSDIAVEWESNGQPENNYLTWPPVLDSDGSFFLYSKLTVDKSRWQQGNVFSCSVMHEALHNHYTQKSLSLSPG light: DGQMTQSPSSVSASVGDRVTITCQASQSIYSYLSWYQQKPGQRPKLLIYKASTLASGVPSRFSGSGSGTDFTLTISSVQPEDFATYYCQQGYTVTNVDKNTFGGGTKVEIKRTVAAPSVFIFPPSDEQLKSGTASVVCLLNNFYPREAKVQWKVDNALQSGNSQESVTEQDSKDSTYSLSSTLTLSKADYEKHKVYACEVTHQGLSSPVTKSFNRGEC heavy 2: EVQLVESGGGLVQPGGSLRLSCAASGVTFNYYGMSWIRQAPGKGLEWVASITSSGGRIYYPDSVKGRFTISRENTQKTLYLQMNSLRAEDTAVYYCTLDGRDGWVAYWGQGTLVTVSSGGGGSGGGGSGGGGSGGGGSNFMLTQPHSVSESPGKTVTISCKRNTGNIGSNYVNWYQQHEGSSPTTIIYRNDKRPDGVSDRFSGSIDRSSKSASLTISNLKTEDEADYFCQSYSSGFIFGGGTKLTVLA[human IgG1 Fc with changes not shown] |  |  |  | 57 | 110 | 74 | 82 | 300 |

Read-outs that look alike come from different tables or passages of the source.
